Results from PubChem BioAssay AID651820 (National Center for Advancing Translational Sciences (NCATS), 2012).
Screen size: about 340,000 compounds; about 12,000 (3.5%) were called active. Inconclusive means that the source gave no clear call. Such entries were picked first, then a sample of the others. Calls come from the whole dose curve; as a rule, active = well fitted inhibition curve with a large enough effect; inconclusive = small, poorly fitted or top-dose-only effect, or another doubt; inactive = no such curve, though single readings can be large or run the other way. No potency is given beside an inconclusive call; the fits are too rough.

Assay: qHTS Assay for Inhibitors of Hepatitis C Virus (HCV)
Settings: Huh7.5.1 HCVcc-Cre (HCVcc is cell-culture hepatitis C virus) infection, luciferase reporter, 44 h; series mostly up to 41.8 µM
Method in brief: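 HCVcc-Cre virus at an moi near 0.5 was added right after compound to cells cultured 4 h from seeding (1,000 cells/well). Luciferase activity was determined 44 h later, 15 min after substrate addition at RT.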
Potency is the fitted concentration of half-maximal effect; tags give direction and shape of the fitted curve.

| SMILES | Potency |
| --- | --- |
| CC(=O)c1ccc(S(=O)(=O)N2CCN(c3nc4c(C)c(C)ccc4cc3C#N)CC2)cc1 | active: 10 µM |
| CC(C)(C)c1csc(N/N=C/c2cccnc2)n1 | inconclusive [inhibitor, single point] |
| CCOC(=O)C1CCCN(S(=O)(=O)Cc2ccc(Cl)cc2)C1 (configuration not stated) | inactive |
| COC(=O)c1cn(C(=O)/C=C/c2ccc(OC)c(OC)c2)c2ccccc12 | inconclusive [inhibitor, partial curve] |
| CC1CN(CC(O)COc2ccccc2C(C)(C)C)CC(C)O1 (configuration not stated) | inactive |
| Cc1c(C(=O)N/N=C/c2ccncc2)no[n+]1[O-] | inconclusive [inhibitor, partial curve, poor fit] |
| Cn1c(SCC(=O)O)nnc1-c1cccc(NC(=O)c2cccc3ccccc23)c1 | inactive |
| CN(C)/C=C/c1c([N+](=O)[O-])c2ccc(O)cc2n1-c1ccccc1 | inconclusive [inhibitor, single point] |
| Cc1ccc(CNC(=O)C(=O)NCCC2CCCCN2S(=O)(=O)c2ccccc2)cc1 (configuration not stated) | inconclusive [inhibitor, partial curve] |
| Cc1ccc(NS(=O)(=O)c2ccc(-n3cccn3)cc2)cc1C | inconclusive [inhibitor, partial curve] |
| COc1ccc(/C=C2\SC(=S)N(CC(=O)NC3C=CS(=O)(=O)C3)C2=O)cc1 (configuration not stated) | inactive |
| O=C(Nc1ccnn1C1CCN(CCCC2CCCC2)CC1)c1ccccc1 | inconclusive [inhibitor, partial curve, poor fit] |
| COc1ccc(N(C(=O)Nc2ccc(Cl)cc2)C2=NCCC2)cc1 | inconclusive [inhibitor, partial curve] |
| Cc1ccc(NC(=O)c2cc(S(=O)(=O)N3CCCCC3)cs2)cc1 | inconclusive [inhibitor, single point] |
| O=C(NNC(=S)Nc1ccccc1)c1cc(Br)ccc1Cl | inactive |
| CCOc1ccc(-c2cn(-c3ccc(OC)cc3)c(SC)n2)cc1 | inconclusive [inhibitor, single point] |
| Cc1cc(C(=O)NNC(=O)c2ccccc2[N+](=O)[O-])c(C)o1 | inactive |
| O=C(O)c1ccccc1NS(=O)(=O)c1ccc2ccccc2c1 | inactive |
| COc1ccc(C(=O)NCC(=O)N/N=C/c2cccnc2)cc1 | inactive |
| COCCN(C(=O)CN1CCc2ccccc2C1)c1c(N)n(Cc2ccccc2)c(=O)[nH]c1=O | inconclusive [inhibitor, partial curve] |
| CN(C)S(=O)(=O)c1cccc(COC(=O)c2ccc(Cl)cc2O)c1 | inconclusive [inhibitor, single point] |
| COc1ccc(/C=N/Nc2cc(OC)ncn2)cc1 | inactive |
| CC(C)(C)OC(=O)N[C@@H](Cc1ccccc1)c1nnc(SCC(=O)O)o1 | inactive |
| CC(C)CNC(=O)c1cc([N+](=O)[O-])ccc1N1CCOCC1 | inactive |

| SMILES | Potency |
| --- | --- |
| CCOC(=O)NC1(NCc2ccccc2)Oc2ccccc2O1 | inconclusive [inhibitor, single point] |
| COc1ccc(N(C)C(=O)C2CCCN2S(=O)(=O)c2cccc3nsnc23)c(OC)c1 (configuration not stated) | inactive |
| COc1cc2c(cc1OC)CN(c1ccc(C(F)(F)F)cn1)CC2 | inconclusive [inhibitor, partial curve] |
| COc1ccc(CCNC(=O)c2cnn(-c3ccc(C)c(C)c3)c2NC(=O)c2ccco2)cc1OC | inactive |
| Cc1ccc(C(=O)COc2ccccc2C(=O)Nc2ccccc2)cc1 | active: 15.8 µM |
| CC(C)(CNC(=O)c1cccc(S(=O)(=O)Nc2ccc(Br)cc2)c1)N1CCOCC1 | inconclusive [inhibitor, partial curve] |
| O=C1CN(C(=O)CN2C(=O)NC(c3ccccc3)(c3ccccc3)C2=O)c2ccccc2N1 | inactive |
| COCCNC(=O)CSc1nc2ccc(N3CCOCC3)cc2c(=O)n1CCc1ccccc1 | inactive |
| Cc1cccn2c(=O)c3cc(C(=O)NCC4CCCO4)c(=N)n(Cc4ccc(F)cc4)c3nc12 (configuration not stated) | active: 5.62 µM |
| CCC(NC(=O)c1cc(COc2ccc(F)c(F)c2)on1)c1ccncc1 (configuration not stated) | inconclusive [inhibitor, partial curve] |
| O=C(c1cc(COc2cccc(C(F)(F)F)c2)on1)N1C[C@@H]2CCC[C@H]1C2 | inconclusive [inhibitor, single point] |
| Cc1ccsc1C(=O)N(c1nc2ccccc2s1)c1c(C)cccc1C | inconclusive [inhibitor, partial curve] |
| COC(=O)c1cc(CNC(=O)c2ccc(N3CCCC3)c([N+](=O)[O-])c2)ccc1OC | inconclusive [inhibitor, single point] |
| O=C(Nc1ccc(S(=O)(=O)N2CCCC2)cc1)c1ccc2c(=O)n3c(nc2c1)CCCCC3 | active: 11.2 µM |
| C(CNC1C2CC3CC(C2)CC1C3)CN1CCOCC1 (configuration not stated) | inactive |
| CCOc1ccc(CCNC(=O)c2cccc(NC3=NC4CS(=O)(=O)CC4S3)c2)cc1OCC (configuration not stated) | inconclusive [inhibitor, full curve, poor fit] |
| CCN(CC)c1ccc(CN2CC=C(c3ccc(F)cc3)CC2)cc1 | inconclusive [inhibitor, single point] |
| C=CCn1c(O)c(N=NC(=S)Nc2ccccc2C)c2cc(S(=O)(=O)N3CCOCC3)ccc21 | inconclusive [inhibitor, full curve] |
| CCC(CC)C(=O)Nc1ccc(Sc2ccc([N+](=O)[O-])cc2)cc1 | inconclusive [inhibitor, single point] |
| Cc1ccc(-c2cc(-c3ccccc3)nc(N)c2C#N)o1 | inconclusive [inhibitor, single point] |
| COc1ccc(NS(=O)(=O)c2ccc(NC(=O)c3ccc(Br)cc3)cc2)nn1 | inactive |
| COCCCNC(=O)c1cccc(NC(=O)c2ccccc2)c1 | inconclusive [inhibitor, single point] |
| COc1cccc(-c2nc(Cc3ccc(OC)c(OC)c3)no2)c1 | inconclusive [inhibitor, partial curve, poor fit] |
| COC(=O)C1=CN(c2cccc(C(F)(F)F)c2)C=C(C(=O)OC)C1c1ccc(O)c(OC)c1 | inconclusive [inhibitor, full curve] |

| SMILES | Potency |
| --- | --- |
| Nc1ccc2nc(CCCCCCCCc3nc4ccc(N)cc4[nH]3)[nH]c2c1 | inactive |
| Cc1ccc(-c2csc(NC(=O)c3ccc(-c4ccccc4)cc3)n2)o1 | active: 8.91 µM |
| CCOc1ccccc1OCc1nn2c(COc3ccccc3)nnc2s1 | inconclusive [inhibitor, single point] |
| CN(C)CCCN(C(=O)c1ccc(C(=O)c2ccccc2)cc1)c1nc2c(F)cccc2s1 | inconclusive [inhibitor, partial curve] |
| O=C(/C=C/c1ccccc1)Oc1cccc2cccnc12 | inactive |
| Cc1cccc(-c2noc(CNC(=O)c3ccco3)n2)c1 | inactive |
| CCOC(=O)Cc1csc(NC(=O)CSc2ncnc3c2cnn3-c2ccc(OC)cc2)n1 | inconclusive [inhibitor, partial curve] |
| O=C(Nc1ccccc1NC(=O)NC1CCCCC1)NC1CCCCC1 | active: 12.6 µM |
| O=C1CCN(Cc2ccc(Br)cc2)CCN1[C@H](CO)Cc1ccccc1 | inconclusive [inhibitor, partial curve] |
| CCOc1ccc(CNc2ccc3c(c2)nc(C)n3C)cc1 | inconclusive [inhibitor, partial curve, poor fit] |
| Cc1ccccc1NC(=O)CCC(=O)N/N=C/c1cc([N+](=O)[O-])ccc1O | inactive |
| COc1ccc(C(C)=O)cc1COC(=O)c1cccnc1Cl | active: 11.2 µM |
| Cc1ccc(CN2CCC(CNC(=O)c3ccc(NC(=O)C4=CSCCO4)cc3)CC2)cc1 | active: 12.6 µM |
| O=C(Nc1ccc(N2CCCC2)cc1)c1cc(Br)ccc1Cl | inconclusive [inhibitor, partial curve, poor fit] |
| N#Cc1c2c(c(Nc3ccc(O)cc3)n3c1nc1ccccc13)CCC2 | inconclusive [inhibitor, single point] |
| C/C=C/C=N/Nc1nc(-c2ccc([N+](=O)[O-])cc2)cs1 | inconclusive [inhibitor, partial curve] |
| c1cncc(CSc2ccc(-c3cccnc3)nn2)c1 | inactive |
| O=[N+]([O-])c1ccc(N=Nc2c(O)[nH]c3ccc(F)cc23)cc1 | inactive |
| C[C@]12C=CC(=O)C=C1CC[C@@H]1[C@@H]2C(=O)C[C@@]2(C)[C@H]1CC[C@]2(O)C(=O)COC(=O)CCC(=O)O | inactive |
| COc1ccc(CN(CC(=O)NCCC(C)C)C(=O)CCC(=O)Nc2nccs2)cc1 | inactive |
| Cc1ccc(S(=O)(=O)N2CCC(C(=O)NNC(=O)c3ccccc3O)CC2)cc1C | inconclusive [inhibitor, single point] |
| CCOc1ccc(CCNC(=O)CCn2nc(C)c3c(C)n(-c4ccccc4)nc3c2=O)cc1 | inconclusive [inhibitor, partial curve] |
| CC(C)CN(C(=O)COC(=O)C12CC3CC(CC(C3)C1)C2)c1c(N)n(Cc2ccccc2)c(=O)[nH]c1=O | active: 15.8 µM |
| FC(F)(F)c1ccccc1NC(=S)NN=C1CCCCCC1 | inconclusive [inhibitor, single point] |
